Data taken from PMC10185812.
Results are given in words; binding and its absence hold for the method and conditions named. In cells and extracts the contact can be indirect. Some results given as binding are weak or reduced against the parent protein; the word gives no strength. For part of these data: Where a sequence is shown, tags or fusion partners need not be part of it.

Legend:
[1] = molecular target: T1, 3xHA-C21ORF2 R73P (human) (UniProt O43822); assay: co-IP; ARPE-19 transiently co-transfected with 3xHA-C21ORF2 (WT or mutants) and 3xFLAG-NEK1; immunoprecipitation with anti-HA (the legend also names anti-FLAG); immunoblotting
T1 sequence: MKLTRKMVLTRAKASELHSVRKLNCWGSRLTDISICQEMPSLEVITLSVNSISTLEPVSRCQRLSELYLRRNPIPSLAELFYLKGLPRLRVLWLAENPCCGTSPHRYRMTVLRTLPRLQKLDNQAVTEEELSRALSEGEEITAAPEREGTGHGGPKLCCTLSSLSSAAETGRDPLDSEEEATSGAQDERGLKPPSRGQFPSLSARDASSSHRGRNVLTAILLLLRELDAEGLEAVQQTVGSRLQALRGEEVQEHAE

[2] = molecular target: T2, 3xHA-C21ORF2 T150I (human) (UniProt O43822); assay: as above
T2 sequence: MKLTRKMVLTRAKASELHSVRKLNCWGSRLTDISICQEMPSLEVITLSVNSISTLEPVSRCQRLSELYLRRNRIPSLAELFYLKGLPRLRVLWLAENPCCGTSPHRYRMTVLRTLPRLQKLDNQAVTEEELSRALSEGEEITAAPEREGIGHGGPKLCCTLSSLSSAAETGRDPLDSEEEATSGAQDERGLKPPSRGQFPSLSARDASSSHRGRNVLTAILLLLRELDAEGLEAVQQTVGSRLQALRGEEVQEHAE

[3] = molecular target: T3, 3xHA-C21ORF2 L224P (human) (UniProt O43822); assay: as above
T3 sequence: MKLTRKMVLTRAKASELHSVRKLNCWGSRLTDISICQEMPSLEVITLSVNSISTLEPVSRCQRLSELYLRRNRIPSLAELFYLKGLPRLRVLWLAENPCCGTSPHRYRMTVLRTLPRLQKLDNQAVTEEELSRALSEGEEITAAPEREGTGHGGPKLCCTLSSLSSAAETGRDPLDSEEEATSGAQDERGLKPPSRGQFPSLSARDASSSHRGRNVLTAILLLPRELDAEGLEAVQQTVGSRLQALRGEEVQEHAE

3xHA-C21ORF2 (human) = molecular target: T4, 3xHA-C21ORF2 (human) (UniProt O43822); assay: as above
T4 sequence: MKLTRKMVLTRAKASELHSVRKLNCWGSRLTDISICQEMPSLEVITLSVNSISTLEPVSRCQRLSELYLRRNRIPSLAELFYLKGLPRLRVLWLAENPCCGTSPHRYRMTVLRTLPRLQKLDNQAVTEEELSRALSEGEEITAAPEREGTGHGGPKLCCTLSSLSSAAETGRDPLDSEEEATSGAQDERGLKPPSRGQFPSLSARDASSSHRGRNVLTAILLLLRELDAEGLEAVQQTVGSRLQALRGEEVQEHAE

[4] = molecular target: T5, C21ORF2 (endogenous) (human (endogenous in ARPE-19, HeLa, HEK293, U2-O-S)) (UniProt O43822); assay: co-IP; HeLa, HEK293 and U2-O-S cell lysates; immunoprecipitation with in-house sheep anti-C21ORF2 or anti-NEK1 antibodies (sheep IgG beads as control); immunoblotting
T5 sequence: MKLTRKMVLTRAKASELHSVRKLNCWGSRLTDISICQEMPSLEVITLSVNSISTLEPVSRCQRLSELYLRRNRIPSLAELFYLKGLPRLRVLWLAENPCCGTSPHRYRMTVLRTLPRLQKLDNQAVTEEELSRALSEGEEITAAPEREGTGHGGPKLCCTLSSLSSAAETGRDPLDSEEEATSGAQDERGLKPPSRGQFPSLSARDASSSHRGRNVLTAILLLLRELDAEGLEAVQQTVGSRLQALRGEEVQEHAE

[5] = molecular target: T5, C21ORF2 (endogenous) (human (endogenous in ARPE-19, HeLa, HEK293, U2-O-S)); assay: co-IP; ARPE-19 cell extracts; immunoprecipitation with in-house sheep antibodies against NEK1 or C21ORF2 (sheep IgG as control); 4°C; washes with 50 mM Tris pH 7.4, 500 mM NaCl, 1% Triton X-100; immunoblotting
[6] = molecular target: T5, C21ORF2 (endogenous) (human (endogenous in ARPE-19, HeLa, HEK293, U2-O-S)); assay: co-IP; pooled gel filtration fractions of ARPE-19 extract; three rounds of immunodepletion with antibodies against NEK1 or C21ORF2 or sheep IgG; 4°C; washes with 50 mM Tris pH 7.4, 500 mM NaCl, 1% Triton X-100; beads and supernatants immunoblotted
[7] = molecular target: T6, C21ORF2 L224P (lentiviral, UbC promoter, in C21ORF2-KO cells) (human) (UniProt O43822); assay: co-IP; NEK1-KO or C21ORF2-KO ARPE-19 cells transduced with lentivirus for WT or mutated NEK1 (CMV promoter) or C21ORF2 (UbC promoter); immunoprecipitation with antibodies against NEK1 or C21ORF2; immunoblotting
T6 sequence: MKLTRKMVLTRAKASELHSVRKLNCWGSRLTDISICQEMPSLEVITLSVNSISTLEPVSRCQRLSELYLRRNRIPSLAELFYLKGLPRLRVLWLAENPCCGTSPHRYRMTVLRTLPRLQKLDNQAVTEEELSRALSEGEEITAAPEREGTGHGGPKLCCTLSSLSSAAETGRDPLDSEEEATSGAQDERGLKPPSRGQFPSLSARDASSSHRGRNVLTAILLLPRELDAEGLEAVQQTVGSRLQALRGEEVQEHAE

[8] = molecular target: T7, C21ORF2 R73P (lentiviral, UbC promoter, in C21ORF2-KO cells) (human) (UniProt O43822); assay: as above
T7 sequence: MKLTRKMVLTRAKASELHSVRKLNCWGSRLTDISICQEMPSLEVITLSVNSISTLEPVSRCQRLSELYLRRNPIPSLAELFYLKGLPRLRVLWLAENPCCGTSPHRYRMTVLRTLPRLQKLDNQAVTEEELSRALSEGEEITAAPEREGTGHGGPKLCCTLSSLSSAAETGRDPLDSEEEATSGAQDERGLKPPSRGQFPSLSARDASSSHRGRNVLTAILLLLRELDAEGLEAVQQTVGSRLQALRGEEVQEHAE

Measured: binding

B1: 3xFLAG-NEK1 (protein, UniProt Q96PY6-3 1-1286)
chain: MEKYVRLQKIGEGSFGKAILVKSTEDGRQYVIKEINISRMSSKEREESRREVAVLANMKHPNIVQYRESFEENGSLYIVMDYCEGGDLFKRINAQKGVLFQEDQILDWFVQICLALKHVHDRKILHRDIKSQNIFLTKDGTVQLGDFGIARVLNSTVELARTCIGTPYYLSPEICENKPYNNKSDIWALGCVLYELCTLKHAFEAGSMKNLVLKIISGSFPPVSLHYSYDLRSLVSQLFKRNPRDRPSVNSILEKGFIAKRIEKFLSPQLIAEEFCLKTFSKFGSQPIPAKRPASGQNSISVMPAQKITKPAAKYGIPLAYKKYGDKKLHEKKPLQKHKQAHQTPEKRVNTGEERRKISEEAARKRRLEFIEKEKKQKDQIISLMKAEQMKRQEKERLERINRAREQGWRNVLSAGGSGEVKAPFLGSGGTIAPSSFSSRGQYEHYHAIFDQMQQQRAEDNEAKWKREIYGRGLPERGILPGVRPGFPYGAAGHHHFPDADDIRKTLKRLKAVSKQANANRQKGQLAVERAKQVEEFLQRKREAMQNKARAEGHMGILQNLAAMYGGRPSSSRGGKPRNKEEEVYLARLRQIRLQNFNERQQIKAKLRGEKKEANHSEGQEGSEEADMRRKKIESLKAHANARAAVLKEQLERKRKEAYEREKKVWEEHLVAKGVKSSDVSPPLGQHETGGSPSKQQMRSVISVTSALKEVGVDSSLTDTRETSEEMQKTNNAISSKREILRRLNENLKAQEDEKGKQNLSDTFEINVHEDAKEHEKEKSVSSDRKKWEAGGQLVIPLDELTLDTSFSTTERHTVGEVIKLGPNGSPRRAWGKSPTDSVLKILGEAELQLQTELLENTTIRSEISPEGEKYKPLITGEKKVQCISHEINPSAIVDSPVETKSPEFSEASPQMSLKLEGNLEEPDDLETEILQEPSGTNKDESLPCTITDVWISEEKETKETQSADRITIQENEVSEDGVSSTVDQLSDIHIEPGTNDSQHSKCDVDKSVQPEPFFHKVVHSEHLNLVPQVQSVQCSPEESFAFRSHSHLPPKNKNKNSLLIGLSTGLFDANNPKMLRTCSLPDLSKLFRTLMDVPTVGDVRQDNLEIDEIEDENIKEGPSDSEDIVFEETDTDLQELQASMEQLLREQPGEEYSEEEESVLKNSDVEPTANGTDVADEDDNPSSESALNEEWHSDNSDGEIASECECDSVFNHLEELRLHLEQEMGFEKFFEVYEKIKAIHEDEDENIEICSKIVQNILGNEHQHLYAKILHLVMADGAYQEDNDE
binds: [1] | [2] | [3] | 3xHA-C21ORF2 (human)

B2: NEK1 (endogenous) (protein, UniProt Q96PY6-3 1-1286)
chain: MEKYVRLQKIGEGSFGKAILVKSTEDGRQYVIKEINISRMSSKEREESRREVAVLANMKHPNIVQYRESFEENGSLYIVMDYCEGGDLFKRINAQKGVLFQEDQILDWFVQICLALKHVHDRKILHRDIKSQNIFLTKDGTVQLGDFGIARVLNSTVELARTCIGTPYYLSPEICENKPYNNKSDIWALGCVLYELCTLKHAFEAGSMKNLVLKIISGSFPPVSLHYSYDLRSLVSQLFKRNPRDRPSVNSILEKGFIAKRIEKFLSPQLIAEEFCLKTFSKFGSQPIPAKRPASGQNSISVMPAQKITKPAAKYGIPLAYKKYGDKKLHEKKPLQKHKQAHQTPEKRVNTGEERRKISEEAARKRRLEFIEKEKKQKDQIISLMKAEQMKRQEKERLERINRAREQGWRNVLSAGGSGEVKAPFLGSGGTIAPSSFSSRGQYEHYHAIFDQMQQQRAEDNEAKWKREIYGRGLPERGILPGVRPGFPYGAAGHHHFPDADDIRKTLKRLKAVSKQANANRQKGQLAVERAKQVEEFLQRKREAMQNKARAEGHMGILQNLAAMYGGRPSSSRGGKPRNKEEEVYLARLRQIRLQNFNERQQIKAKLRGEKKEANHSEGQEGSEEADMRRKKIESLKAHANARAAVLKEQLERKRKEAYEREKKVWEEHLVAKGVKSSDVSPPLGQHETGGSPSKQQMRSVISVTSALKEVGVDSSLTDTRETSEEMQKTNNAISSKREILRRLNENLKAQEDEKGKQNLSDTFEINVHEDAKEHEKEKSVSSDRKKWEAGGQLVIPLDELTLDTSFSTTERHTVGEVIKLGPNGSPRRAWGKSPTDSVLKILGEAELQLQTELLENTTIRSEISPEGEKYKPLITGEKKVQCISHEINPSAIVDSPVETKSPEFSEASPQMSLKLEGNLEEPDDLETEILQEPSGTNKDESLPCTITDVWISEEKETKETQSADRITIQENEVSEDGVSSTVDQLSDIHIEPGTNDSQHSKCDVDKSVQPEPFFHKVVHSEHLNLVPQVQSVQCSPEESFAFRSHSHLPPKNKNKNSLLIGLSTGLFDANNPKMLRTCSLPDLSKLFRTLMDVPTVGDVRQDNLEIDEIEDENIKEGPSDSEDIVFEETDTDLQELQASMEQLLREQPGEEYSEEEESVLKNSDVEPTANGTDVADEDDNPSSESALNEEWHSDNSDGEIASECECDSVFNHLEELRLHLEQEMGFEKFFEVYEKIKAIHEDEDENIEICSKIVQNILGNEHQHLYAKILHLVMADGAYQEDNDE
binds: [4] | [5] | [6] | [7] | [8]
